# From PubChem BioAssay AID1240 (Sanford-Burnham Center for Chemical Genomics, 2008)
# About 800 (1.6%) of roughly 50,000 compounds showed an effect of 50% or more. Some of the results follow.
# Target: Bcl-2-like protein 10 (Homo sapiens) (UniProt Q9HD36)
# Assay: Phenotype converters, Bcl-B/TR3 peptide binding displacement, primary biochemical FP (AID 1240);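 also: 0% = Bcl-B with tracer peptide and DMSO and 100% = tracer peptide lacking Bcl-B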
# Settings: GST-Bcl-B / FITC-TR3 peptide fluorescence polarization; stronger effect = higher value; compound at 3.75 mg/L
# Sequence of UniProt Q9HD36 (Q9HD36 whole entry, looked up): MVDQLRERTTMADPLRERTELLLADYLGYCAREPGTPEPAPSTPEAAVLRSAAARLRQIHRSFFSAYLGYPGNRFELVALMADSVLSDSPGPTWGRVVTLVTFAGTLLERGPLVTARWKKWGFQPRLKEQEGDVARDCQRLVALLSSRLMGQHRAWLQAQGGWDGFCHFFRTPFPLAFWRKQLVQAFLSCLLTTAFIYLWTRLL
row,SMILES,displacement [%]
1,COc1ccc(-c2[nH]c3[n+](c2N)CCS3)cc1,-17.5
2,CCOc1ccc(C2C(C(=O)/C=C/c3ccccc3)=C(O)C(=O)N2CCCCCC(=O)O)cc1 (configuration not stated),-1
3,O=C(/C=C/c1ccccc1)NCCSc1ccccn1,3.7
4,Cc1ccc(Cl)cc1NC(=O)c1ccccc1N(Cc1ccccc1)S(=O)(=O)c1ccccc1,2.3
5,CC(=O)Nc1ccc(S(=O)(=O)N2CCN(Cc3ccccc3)CC2)cc1,1.4
6,CC(C)(C)c1ccccc1OCC(O)CN1CCN(c2ccccc2)CC1 (configuration not stated),-5.2
7,Cc1sc2nc(SC/C=C/c3ccccc3)n(-c3ccccc3)c(=O)c2c1C,-8.5
8,CCCCc1c(C)nc(N/N=C/c2ccc(OCCC)cc2O)[nH]c1=O,-6.4
9,Cc1cc(/C=C2/SC(=O)NC2=O)c(C)n1-c1cccnc1,0.8
10,Cc1ccc(S(=O)(=O)N(CC(=O)N2CCOCC2)c2ccccc2F)cc1,4.3
11,O=S(=O)(NCc1ccncc1)c1cc(Cl)ccc1Cl,-10
12,Cc1cc(C)n(CC(O)Cn2c3ccccc3c3ccccc32)n1 (configuration not stated),9
13,CCC(Oc1ccccc1)C(=O)Nc1ccc(F)c([N+](=O)[O-])c1 (configuration not stated),-5.1
14,Nc1nnc(SCC(=O)Nc2ccc3c(c2)oc2ccccc23)s1,-0.8
15,CCOC(=O)c1c(NC(=O)c2cnccn2)sc2c1CCC(C(C)(C)C)C2 (configuration not stated),4.1
16,COC(=O)C(Cc1c[nH]c2ccccc12)NC(=O)C(c1ccccc1)c1ccccc1 (configuration not stated),0.3
17,CC1(C)Cc2c(c(N3CCOCC3)nc3sc4c(NCc5ccccc5)ncnc4c23)CO1,8
18,CCN(CC)CCCCOc1ccc(C(C)C)cc1,-6.7
19,Cc1cc(C(=O)N/N=C/C(Br)=C/c2ccccc2)n[nH]1,-19.5
20,Cc1ccc2oc(-c3cc(NC(=O)Cc4ccccc4)ccc3O)nc2c1,7.4
21,N#C/C(=C/c1ccccc1)C(=O)Nc1ccc(Cl)c(Cl)c1,1.5
22,COc1cc(C=C2C(=O)NC(=S)NC2=O)ccc1OS(=O)(=O)c1ccccc1,2.2
23,COc1ccc(S(=O)(=O)N(CC(=O)N2CCN(c3ccccc3)CC2)c2ccc(C)cc2)cc1OC,6.1

row,SMILES,displacement [%]
1,CCOC(=O)/C(=C/Nc1ccccc1)C(=O)Nc1ccccc1,7
2,COc1ccc(N/C(C)=C/C(=O)c2ccc(F)cc2)cc1,-0.7
3,O=C(NNC(=O)C(c1ccccc1)c1ccccc1)C(c1ccccc1)c1ccccc1,13
4,O=P(CC1CCCO1)(c1ccccc1)c1ccccc1 (configuration not stated),2.3
5,NC1=NC(=O)/C(=C\c2ccc(-c3ccc(F)cc3)o2)S1,13.5
6,Cc1cccc2sc(NC(=O)c3ccccc3C(=O)O)nc12,20.9
7,Cc1nc(-c2ccccc2)sc1C(=O)NCc1ccccc1,7.4
8,O=C1NC(=S)N(C(=O)c2ccc(F)cc2)/C1=C/c1ccc(Br)cc1,-2.2
9,COc1ccc(-c2ccc(/C=N/NC(=O)c3cccnc3)o2)cc1Cl,11.8
10,COc1ccccc1C(=O)Nc1ccc(-c2cc3ccccc3oc2=O)cc1,12.1
11,COc1ccccc1CNC(=O)c1cccc(C)c1,-3.2
12,Cc1ccc2oc(-c3cccc(NC(=O)c4ccc(-c5ccc([N+](=O)[O-])cc5C)o4)c3C)nc2c1,10.3
13,COc1ccc(C(=O)Nc2cccc3nsnc23)cc1,-2.4
14,O=C(Cc1ccc([N+](=O)[O-])cc1)N/N=C/c1ccncc1,11.6
15,CN(C)CCNC(=O)/C(=N\O)c1ccccn1,15.9
16,Cc1ccc(NC(=S)NC(=O)c2ccco2)cc1C,7.8
17,CCOC(=O)c1sc(NC(=S)NC(=O)c2ccc([N+](=O)[O-])cc2)c(C(=O)OCC)c1C,6.3
18,CCOc1ccccc1NC(=O)COc1ccc2ccccc2c1,3.7
19,O=C(COc1cccc2ccccc12)Nc1ccc2c(c1)OCO2,5.2
20,c1ccc2sc(SCCOCCSc3nc4ccccc4s3)nc2c1,11.8
21,Cc1cc(Cl)ccc1OCCCC(=O)NC1CCCCCCC1,-7.8
22,COc1ccccc1/C=C1/SC(=O)N(CNc2ccc(F)cc2)C1=O,4.5
23,O=C(O)/C=C/c1cc(C(=O)O)c(/C=C/C(=O)O)cc1C(=O)O,-2.6

row,SMILES,displacement [%]
1,CCOc1ccc(NC(=S)NC(=O)c2ccc(F)cc2)c([N+](=O)[O-])c1,13.3
2,NS(=O)(=O)c1ccc(CNS(=O)(=O)Cc2ccccc2)cc1,-2.9
3,CC(=O)n1cc(C2C(=O)CC(C)(C)CC2=O)c2ccccc21,-6.8
4,Cc1ccc(C(C)C)c(OCc2nnc(NC(=O)c3ccc(Br)cc3)s2)c1,-16.7
5,CCc1ccc(OCC(=O)Nc2c(C)ccc3nsnc23)cc1,10
6,O=C(c1ccccc1)c1ccc(N=Cc2ccc([N+](=O)[O-])s2)cc1,8.8
7,CC(=O)N1CCN(c2ccc(NC(=O)c3sc4ccccc4c3Cl)cc2)CC1,0.7
8,COc1cccc(C(=O)Nc2nnc(-c3ccc([N+](=O)[O-])cc3)s2)c1,1.8
9,CCCOc1ccc(/C=N/Nc2nc(-c3ccccc3)nc(C)c2C)c(O)c1,-14
10,C=CCc1cccc(/C=N/N=C2/NC(=O)CS2)c1O,-5.7
11,COc1ccc(OC)c(N2C(=O)c3cccc4cccc(c34)C2=O)c1,-11.3
12,COC(=O)c1ccc(C(=O)Nc2cc(Cl)ccc2Cl)cc1N=NC1=C(O)CC(C)(C)CC1=O,16.9
13,CCC(CC)NCc1cccc([N+](=O)[O-])c1,1.5
14,CCOc1cccc2c1N(C(=O)Cc1ccccc1)C(C)(C)c1ssc(=S)c1-2,13.7
15,Cc1ccc(-c2ccc(OCC(=O)Nc3ccc(F)cc3)cc2)cc1,-5.8
16,O=C(/C=C/c1cccc([N+](=O)[O-])c1)Nc1cc(C(F)(F)F)cc(C(F)(F)F)c1,-9.7
17,CN1C(=O)/C(=N/OC(=O)c2ccccc2F)c2ccccc21,2.5
18,COc1ccc(C2Nc3ccc(Br)cc3C(c3ccccc3)N2CC(=O)O)cc1 (configuration not stated),21.2
19,COc1ccc(NC(=O)CCc2ccccc2)c(OC)c1,4.6
20,Cc1cc(C)cc(OCC(=O)NNC(=O)CN2C(=O)c3ccccc3C2=O)c1,-1.6
21,CCOCCOC(=O)c1cccc(NC(=O)C(C(C)C)N2C(=O)c3ccccc3C2=O)c1 (configuration not stated),1.1
22,COc1ccc(C2CC(c3cccs3)=NN2C(=O)CCC(=O)O)cc1 (configuration not stated),6.9
23,COc1ccc(Cc2cnc(NC(=O)c3ccccc3Cl)s2)cc1,7.9

row,SMILES,displacement [%]
1,NC(=O)C1CCN(C(=O)CCc2ccccc2)CC1,3.2
2,CC1=NN(c2cccc(C(=O)O)c2)C(=O)/C1=C\c1ccc(N(C)C)c(Br)c1,4.5
3,Cc1ccccc1N1C(=O)CC(SC2=NCCS2)C1=O (configuration not stated),15.9
4,COc1cccc(CN2CCN(C(=O)c3cccc(OC)c3OC)CC2)c1,-1.6
5,CCN(CC)CCCCCCOc1ccc(Cl)cc1,-9.3
6,O=[N+]([O-])c1ccc(N2CCOCC2)cc1NCCCO,7.9
7,Clc1ccccc1CN1CCN(N=Cc2cccc(Cl)c2Cl)CC1,8
8,O=C1C(=O)N(Cc2ccccc2)C(c2ccc(Cl)cc2)/C1=C(/O)c1ccccc1 (configuration not stated),5.5
9,CCOc1ccccc1NC(=O)c1ccc(CN(c2ccccc2)S(C)(=O)=O)cc1,6.6
10,CCc1ccccc1NC(=O)c1ccc(CN2CCc3ccccc3C2)cc1,0.8
11,O=C(c1ccccc1Cl)N1CCN(c2ccccn2)CC1,-8.7
12,Cc1cccc(/C(N)=N/OC(=O)c2ccc(Cl)cc2Cl)c1,2.7
13,CCc1ccc(C2(c3ccc(CC)cc3)CC2C(=O)Nc2nccs2)cc1 (configuration not stated),-15
14,CC(C)c1ccc2c(c1)c1c3n2CCNC3CCC1 (configuration not stated),18.1
15,COc1cccc(NC(=O)CSc2nc3ccc(OC)cc3[nH]2)c1,-9.1
16,CC(=O)N(CCC1(Cc2ccccc2)CCOC(C)(C)C1)Cc1ccccc1 (configuration not stated),7.8
17,O=C(O)/C=C/c1ccc(-c2ccccc2Br)o1,-2.2
18,O=C(c1cc2nc(-c3cccs3)cc(C(F)(F)F)n2n1)N1CCOCC1,-10.7
19,COc1ccc(Cl)cc1C(=O)Nc1ccc2c3c(cccc13)CC2,38.5
20,CCCOC(=O)c1ccc(NC(=O)COc2ccc(C(C)C)cc2)cc1,7.1
21,O=c1oc(-c2ccco2)cc(-c2ccccc2)c1-c1ccccc1,7.1
22,Cc1cc(=O)oc2cc(OC(=O)c3ccccc3)cc(OC(=O)c3ccccc3)c12,5.4
23,COc1ccc(CCNC(=O)Cc2ccccc2)cc1,-15.3

row,SMILES,displacement [%]
1,COc1ccc(OCCOCCOc2ccc(OC)cc2)cc1,3.9
2,O=C1CSC(=S)N1NS(=O)(=O)c1ccccc1,-21.9
3,COc1cc(/C=C2/SC(=S)N(Cc3ccccc3)C2=O)ccc1OC(=O)c1cccs1,16.4
4,N#Cc1c(SCC(=O)c2ccc(Cl)cc2)nc2c(c1-c1ccco1)CCCC2,14
5,O=C(COc1ccc([N+](=O)[O-])cc1)Nc1cc(C(F)(F)F)ccc1Cl,-7.9
6,O=C(/C=C/c1ccccc1Cl)Nc1cccc(Br)c1,16.3
7,CC(=O)C(C(=O)c1ccccc1)C(=O)c1ccccc1,-1.1
8,CC(C)C(=O)Nc1ccc(N2CCOCC2)cc1,0.5
9,COc1ccc(Cl)cc1NC(=O)c1cnn2c1NC(c1cccs1)CC2C(F)(F)F (configuration not stated),8.3
10,CCSC(=S)Nc1c(C)n(C)n(-c2ccccc2)c1=O,4.6
11,O=C(NN1C(=O)c2ccc([N+](=O)[O-])cc2C1=O)c1cccnc1,1.5
12,N#CC(C#N)=CNc1ccc([N+](=O)[O-])cc1,-12.3
13,Cc1ccc(/C=C2\SC(=S)N(CCC(=O)Nc3cccc(O)c3)C2=O)cc1,-0.2
14,OC(COc1ccccc1)CN1CCCCCC1 (configuration not stated),-5.9
15,COc1cccc(/C=C2/SC(=O)N(CN3CCCCC3)C2=O)c1,-3.9
16,Cc1cccc(NC(=O)/C=C/c2ccc(Cl)cc2)c1,19.1
17,COc1ccc(/C=C2\C=C(c3ccc(Br)cc3)OC2=O)c(C)c1,2.4
18,O=C1CC(c2ccc3c(c2)OCO3)c2cc(Br)c3ccccc3c2N1 (configuration not stated),1
19,CC(=O)CCc1c(C)nc2c(C)cccc2c1Cl,-0.6
20,COC(=O)c1c(NC(=O)c2ccccc2[N+](=O)[O-])sc(Cc2ccccc2)c1C,-11.9
